# Data: PubChem BioAssay AID686979 (National Center for Advancing Translational Sciences (NCATS), 2013)
# Several values for one entry are separate records, joined by “and”; a condition that tells them apart may be missing. Equal entries are not always repeated. The campaign covered roughly 420,000 compounds. About 50,000 (12%) were called active. The inconclusive results got no clear call from the source; some entries with a clear call stand among them for comparison. The call rests on the fitted dose curve; in most records, active means well fitted inhibition curve with a large enough effect; inconclusive means small, poorly fitted or top-dose-only effect; inactive means flat fitted curve, though single readings scatter. No potency is given beside an inconclusive call; the fits are too rough.
# Experiment: qHTS for Inhibitors of human tyrosyl-DNA phosphodiesterase 1 (TDP1): qHTS in cells in presence of CPT; further: nearly all actives have a fitted effect of over 55% in size
# Conditions: chicken DT40 Tdp1-/-;hTDP1 cells + 20 nM CPT, ATP luminescence, 48 h; activity change, negative = growth inhibition: at 46.2 µM (top of the series) unless noted
# Outline: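 Chicken DT40 Tdp1-/- cells stably complemented with human TDP1 were seeded at 400 cells/well in medium containing 20 nM camptothecin, exposed to pin-transferred compounds, and grown at 37 °C for at least 48 hr. Viability was read as ATP luminescence.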
# On the % scale 0 is the no-effect control and ±100 the full control effect; potency means the concentration at half of the fitted maximal effect; tags describe the fitted curve by direction and shape.
Compound,"activity change, negative = growth inhibition",Potency
CCCc1cc(=O)oc2cc(C)cc(OCC(=O)Nc3ccc(S(N)(=O)=O)cc3)c12,inactive: -15.8%,–
CN1CCN(C(CNC(=O)c2cccc(F)c2)c2ccc3c(c2)OCO3)CC1 (configuration not stated),inactive: -10.7%,–
Cc1ccc(C)c(OCCCNC2CCCC2)c1C,–,active: 23.1 µM
O=C1CN(C(=O)CSc2nc3c(cnn3-c3ccccc3)c(=O)[nH]2)c2ccccc2N1,–,"inconclusive [inhibitor, single point]"
C=CCNCCCCOc1ccccc1-c1ccccc1,–,"inconclusive [inhibitor, single point]"
CSCCC(NC(=O)c1ccccc1Br)C(=O)NCCCn1nc(C)cc1C (configuration not stated),inactive: -1.72%,–
Cn1cc(C(=O)Nc2ccc(Cl)c(Cl)c2)cn1,–,"inconclusive [inhibitor, single point]"
CC(C)c1cc(CNC(=O)c2ccc(OC3CCN(Cc4ccccn4)CC3)cc2)on1,–,"inconclusive [inhibitor, single point]"
C/C(=N\NC(=O)c1cccc(S(=O)(=O)N2CCCC2)c1)c1ccc(C)cc1,–,"inconclusive [inhibitor, partial curve]"
COC(=O)CCCn1cc(CN2CC(N(C)C)CS2(=O)=O)nn1 (configuration not stated),inactive: 3.87%,–
CCOC(=O)C1CCCN(c2nc(C)nc3c2oc2ccccc23)C1 (configuration not stated),–,active: 14.6 µM
CC(=O)c1ccc(C(C)(C)c2ccc(C(C)=O)s2)s1,–,"inconclusive [inhibitor, partial curve]"
COc1ccc(Cc2nnc(SCC(=O)Nc3ccc(C)cc3C)[nH]c2=O)cc1,inactive: 4.16%,–
COC(=O)c1ccc(-c2ccc(CNCC(O)c3ccccc3)o2)cc1 (configuration not stated),–,"inconclusive [inhibitor, single point]"
N#Cc1ccc(C(=O)Nc2ccc(N3CCN(C(=O)c4ccco4)CC3)cc2)c(F)c1,inactive: -21.1%,–
CN(C(=O)CC(NC(=O)c1ccccc1)(c1ccccc1)c1ccccc1)c1ccccc1,–,"inconclusive [inhibitor, single point]"
Cc1cccc(/C=N/Nc2ccc3ccccc3n2)c1,inactive: -78.2%,–
Cc1ccc(S(=O)(=O)NCCN2CCOCC2)c(C)c1C,inactive: 5.31%,–
COc1ccc(N(CC(=O)Nc2ccc(C)cn2)S(=O)(=O)c2c(C)nn(C)c2C)cc1,–,"inconclusive [inhibitor, single point]"
O=C(CN1C(=O)S/C(=C/c2ccncc2)C1=O)Nc1ccccc1,–,active: 23.1 µM
COc1ccc(NC(=O)CC2C(=O)N(c3ccc(Cl)cc3)C(=S)N2CCc2ccccn2)cc1 (configuration not stated),–,active: 25.9 µM
C1=C(c2cc3ccccc3cn2)CCCC1,–,"inconclusive [inhibitor, partial curve, poor fit]"
Cc1ccc2c(c1)-c1nc(-c3ccc(Cl)cc3)cc(-c3coc4ccccc4c3=O)c1CO2,inactive: -16.7%,–
Cc1ccc2nc(-c3cccnc3)cc(C(=O)N3CCN(c4ccc([N+](=O)[O-])cc4)CC3)c2c1,–,active: 16.4 µM

Compound,"activity change, negative = growth inhibition",Potency
CC(C)(C)C1CCC(C(=O)NCC(c2cccs2)N2CCOCC2)CC1 (configuration not stated),–,active: 16.4 µM
CCN(C(=O)COC(=O)CCc1ccc(OC)cc1)c1c(N)n(Cc2ccccc2)c(=O)[nH]c1=O,inactive: -24.5%,–
CCCCCN(CCCCC)c1ccc(/C=C/c2ccnc3ccccc23)cc1,–,"inconclusive [inhibitor, single point]"
Cc1ccc(-c2csc3nc4cc(C(=O)NC5CCC(O)CC5)ccc4c(=O)n23)cc1 (configuration not stated),–,"inconclusive [inhibitor, single point]"
COc1ccc2[nH]c(C)c(CCNc3ccc(C(F)(F)F)cc3[N+](=O)[O-])c2c1,–,"inconclusive [inhibitor, single point]"
CCCCNC(=O)c1cccc2c(=O)c(C)c(-c3ccccc3)oc12,–,"inconclusive [inhibitor, single point]"
CC(C)N1CCOC1c1ccccc1 (configuration not stated),–,"inconclusive [inhibitor, single point]"
N#Cc1ccccc1NC(=O)c1ccc2c(c1)OCCO2,inactive: -6.23%,–
COc1ccc(C(CC(=O)Nc2cc(OC)cc(OC)c2)n2cccc2)cc1 (configuration not stated),–,"inconclusive [inhibitor, single point]"
O=C1c2cccc3c(N4CCCCC4)ccc(c23)C(=O)N1c1ccc(O)cc1,–,"inconclusive [inhibitor, single point]"
Cc1cccc(CSc2ncc(CO)n2Cc2ccc(F)cc2)c1,–,active: 20.6 µM
COc1cc(Br)c(CCNC(=O)c2ccco2)cc1OC,inactive: -7.1%,–
O=C(Nc1ccc2oc(-c3ccccc3F)nc2c1)c1ccccc1Cl,–,"inconclusive [inhibitor, single point]"
C[C@@H]1[C@H](O)C[C@@]23COC(=O)C2=CCC[C@@H]3[C@@]1(C)CC/C(=C/CO)CO,inactive: -6.5%,–
COc1ccc(/C=C2\SC(=S)N(CCCC(=O)NC3CCCC3)C2=O)cc1OC,–,"inconclusive [inhibitor, single point]"
COc1ccc(NC(=O)CSc2ncc3c(n2)-c2cc(Cl)ccc2N(Cc2ccccc2F)S3(=O)=O)cc1,–,"inconclusive [inhibitor, partial curve]"
CN(C)c1ccc(/C=C/c2ccc3ccccc3[n+]2C)cc1,–,active: 89.1 nM and active: 164 nM
CCOC(=O)C1=C(C)N=C2SC(C(=O)OC)=CC(=O)N2C1c1cccc(OC)c1 (configuration not stated),–,"inconclusive [inhibitor, single point]"
Clc1ccc(CSCCc2ccncc2)cc1,–,"inconclusive [inhibitor, single point]"
COc1cccc(/C=C/C(=O)OCC(=O)NCc2ccco2)c1,inactive: -5.96%,–
O=C(Nc1ccc2nc(-c3ccc4nc[nH]c4c3)[nH]c2c1)c1cccs1,inactive: -24.8%,–
COc1ccccc1N1CCN(C(=O)c2sc3ncnc(N4CCN(c5ccccn5)CC4)c3c2C)CC1,–,active: 4.61 µM
C[C@@H]1CCCCO[C@H](CN(C)Cc2ccccc2)[C@@H](C)CN([C@H](C)CO)C(=O)c2cc(NS(=O)(=O)c3ccc(Cl)cc3)ccc2O1,–,"inconclusive [inhibitor, single point]"
